B1: TPR 5TU (parent)
chain: GGAUCUUCUCGAUCUAACAAAAAAGACAAAUCUGCCACAAAGCUUGAGAGCAUCUUCGGAUGCAGAGGCGGCAGCCUUCGGUGGCGCGAUAGCGCCAACGUUCUCAACUAUGACACGCAAAACGCGUGCUCCGUUGAAUGGAGUUUAUCAUG

Variants at the floor of the assay are shown more often than the library holds them.

These results are taken from the RNAGym collection of RNA variant scans (doi:10.1073/pnas.2313332121).

The variants in the data set derive from B1. The data set can be described thus: polymerase ribozyme fitness, log enrichment relative to wild type (log ratio); higher = more active; in vitro selection for triplet polymerase activity. The method in brief:
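After PCR construction and transcription, each subunit's mutant library from a heterodimeric triplet polymerase ribozyme was annealed with a biotinylated primer, the partner subunit and triplets. Incubation was frozen, at −7 °C, and extended constructs were gel-excised, bound to streptavidin beads and amplified by RT-PCR, in one selection round done in triplicate. Fitness is the logarithm of a genotype's enrichment divided by that of the wild type, from inverse-variance-weighted replicate averages of Illumina-sequenced inputs and outputs. The base of the logarithm is 2, and genotypes needed ≥10 input reads and ≥1 read per output.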
Take A47G C123U C129G: the “polymerase ribozyme fitness (log ratio)” value is -3.23.
For A47G U53A A73U G84C C99A A106U A150C, the “polymerase ribozyme fitness (log ratio)” value was ≤ -4.2.
Take G48U G50A G94A A142U: the “polymerase ribozyme fitness (log ratio)” value was ≤ -4.2.
With G48C C54A U77G G84A G100U, the “polymerase ribozyme fitness (log ratio)” value was ≤ -4.2.
Regarding A47U C51U C87U A113U G152A, the “polymerase ribozyme fitness (log ratio)” value is -3.99.
To A49C A52G C69A C93G C149A belongs ≤ -4.2; to A47U G50U C75U A89C G100U A106U, ≤ -4.2; to G48A A49C C87U C93A A106U G133A, ≤ -4.2.
With G48U C75U C87U, the “polymerase ribozyme fitness (log ratio)” value was ≤ -4.2.
For the variant G48A C85U C95G C96A, the “polymerase ribozyme fitness (log ratio)” value is ≤ -4.2.
Take G48U G84U: the “polymerase ribozyme fitness (log ratio)” value was -2.01.
Take A47U G68A G71C C79G: the “polymerase ribozyme fitness (log ratio)” value was ≤ -4.2.
The result for A47U A52C G68C A91G U111A reads ≤ -4.2; that for G48U C54A C79G G83U G143A, ≤ -4.2.
On to G48A C96A, for which the “polymerase ribozyme fitness (log ratio)” value was -1.51.
Turning to G48A A49C C57A U82G C93U C132U G133U A137U, the “polymerase ribozyme fitness (log ratio)” value is ≤ -4.2.
For the variant A47G C63G G92U C93U, the “polymerase ribozyme fitness (log ratio)” value is -1.34.
The result for G48A C54U G59C G70C G92U reads ≤ -4.2; that for A47U G50C, -3.22; that for G48U A73G, -1.15.
Turning to A47U C93G, the “polymerase ribozyme fitness (log ratio)” value is -3.23.
To A47U C76U A119C U139G belongs -2.8; to G48U A49C G68U G74A C76A G88U C116G, ≤ -4.2.
As to A47G C57U U109G, the “polymerase ribozyme fitness (log ratio)” value is -0.869.
The result for G48A A150U reads -0.592.
The result for A47U C54U C69A reads ≤ -4.2; that for G48C A66G C114G G152C, ≤ -4.2.
In the case of A49C C54U U78G C79U G83U G143U, the “polymerase ribozyme fitness (log ratio)” value was ≤ -4.2.
To A47G G68A C72U G81A A89G U148A belongs ≤ -4.2; to A49C A64U C87A U104G G143A, ≤ -4.2; to G48A A49G G80U C103G G124C U145C, ≤ -4.2.
Take A49C A89U A138U: the “polymerase ribozyme fitness (log ratio)” value is ≤ -4.2.
For the variant G48C C118U, the “polymerase ribozyme fitness (log ratio)” value was -0.625.
Take G48A U77C C93U C105A: the “polymerase ribozyme fitness (log ratio)” value was ≤ -4.2.
To A47U G80C G94C A110G belongs ≤ -4.2.
For the variant A47U U55G G94A, the “polymerase ribozyme fitness (log ratio)” value is -0.633.
Consider G48A C87A C103U C123A U127A, for which the “polymerase ribozyme fitness (log ratio)” value was ≤ -4.2.
In the case of A49C C51A C76A A91G G128A A138U, the “polymerase ribozyme fitness (log ratio)” value was ≤ -4.2.
For G48A U78G G86A C87G C99U A142C U146G, the “polymerase ribozyme fitness (log ratio)” value was ≤ -4.2.
For A49C C51G, the “polymerase ribozyme fitness (log ratio)” value is -4.14.
As to G48C G58U C96A U102A C114A, the “polymerase ribozyme fitness (log ratio)” value was ≤ -4.2.
In the case of A47G G50C A115U U127A A147C, the “polymerase ribozyme fitness (log ratio)” value is ≤ -4.2.
Regarding A47U A97C, the “polymerase ribozyme fitness (log ratio)” value stood at 0.501.
Turning to A49C C54A U78G C93U G124A, the “polymerase ribozyme fitness (log ratio)” value was ≤ -4.2.
Take A47U G88A C96U U144A: the “polymerase ribozyme fitness (log ratio)” value is ≤ -4.2.
On to G48A C85U C95G C103U G124U C132A G143A, for which the “polymerase ribozyme fitness (log ratio)” value is ≤ -4.2.
With G48C A73C C87A C93G G126A, the “polymerase ribozyme fitness (log ratio)” value was ≤ -4.2.
For the variant A49C C57U U101G, the “polymerase ribozyme fitness (log ratio)” value is -2.69.
The result for G48A G86C U101G A121G reads ≤ -4.2; that for G48A C103G C105G, ≤ -4.2.
As to G48A A137G C149U, the “polymerase ribozyme fitness (log ratio)” value was -3.82.
To A47U C54A C75G G140A belongs ≤ -4.2.
To A47G C87U U101C belongs 0.535.
On to G48A G58C C95U G152C, for which the “polymerase ribozyme fitness (log ratio)” value was ≤ -4.2.
A47G G59U C96U U102G G140A: the “polymerase ribozyme fitness (log ratio)” value is ≤ -4.2.
G48U G58A U104G C105U A115G: the “polymerase ribozyme fitness (log ratio)” value was ≤ -4.2.
With A47G C54A, the “polymerase ribozyme fitness (log ratio)” value was -1.65.
With G48C G84A C116G, the “polymerase ribozyme fitness (log ratio)” value was ≤ -4.2.
Turning to G48A U55A G59C C85G, the “polymerase ribozyme fitness (log ratio)” value was ≤ -4.2.
As to G48C G143U, the “polymerase ribozyme fitness (log ratio)” value was -2.25.
The result for A49C C57U C93U G100A A106U G140C reads ≤ -4.2.
With G48U C54A U82G C93A A98G A106G C108G, the “polymerase ribozyme fitness (log ratio)” value is ≤ -4.2.
Consider G48U U61G A97U A106U G126A C131U, for which the “polymerase ribozyme fitness (log ratio)” value was ≤ -4.2.
For the variant G48C C79U G80C G100U U139C G152C, the “polymerase ribozyme fitness (log ratio)” value was ≤ -4.2.
The result for G48C U82G G128C U135A reads -3.96; that for A47U C79A C87U C125G, ≤ -4.2.
To A49C C57G A66U G84A G88C A119C G140A belongs ≤ -4.2.
Consider G48C A64G G70U G94U U144G C149A, for which the “polymerase ribozyme fitness (log ratio)” value was ≤ -4.2.
To A47G G50C G71C G94A U134C belongs ≤ -4.2; to A47G A91G A97G A98C U134G U139A, ≤ -4.2; to G48C G74U C75A A122U G141A, ≤ -4.2.
On to G48C C85U U102G U104A C118U C125A, for which the “polymerase ribozyme fitness (log ratio)” value was -4.14.
Take A47U A60C C125U: the “polymerase ribozyme fitness (log ratio)” value was -2.64.
G48U C87G C118U G141U: the “polymerase ribozyme fitness (log ratio)” value is ≤ -4.2.
With A47G G83C U134A G140U, the “polymerase ribozyme fitness (log ratio)” value is -4.17.
G48C C79A U102G G128U: the “polymerase ribozyme fitness (log ratio)” value was ≤ -4.2.
A49C A107G: the “polymerase ribozyme fitness (log ratio)” value is ≤ -4.2.
Regarding A49C A107U, the “polymerase ribozyme fitness (log ratio)” value is ≤ -4.2.
For the variant A47G C99U, the “polymerase ribozyme fitness (log ratio)” value is 0.0144.
In the case of A49C A52U C85A A91G C95G G133C, the “polymerase ribozyme fitness (log ratio)” value was ≤ -4.2.
As to A47G A147U, the “polymerase ribozyme fitness (log ratio)” value was 0.466.
For the variant G48C C54U A64U C76G A98G U146A, the “polymerase ribozyme fitness (log ratio)” value is ≤ -4.2.
The result for G48C C85U reads -1.95.
Consider G48C A52U G58C C118G U134A, for which the “polymerase ribozyme fitness (log ratio)” value is ≤ -4.2.
